In article PMC4336329 (PLoS ONE, 2015):
Screen size: about 310,000 compounds; about 2,200 (0.71%) showed an effect of 50% or more. Effects have a minus sign here. Some of the results follow.

The compounds below were run against human ether-à-go-go-related gene (hERG) potassium channel (human, UniProt Q12809) (assay: primary screen, population patch clamp on CHO cells stably expressing hERG).
Chain of human ether-à-go-go-related gene (hERG) potassium channel (Q12809 whole entry, looked up): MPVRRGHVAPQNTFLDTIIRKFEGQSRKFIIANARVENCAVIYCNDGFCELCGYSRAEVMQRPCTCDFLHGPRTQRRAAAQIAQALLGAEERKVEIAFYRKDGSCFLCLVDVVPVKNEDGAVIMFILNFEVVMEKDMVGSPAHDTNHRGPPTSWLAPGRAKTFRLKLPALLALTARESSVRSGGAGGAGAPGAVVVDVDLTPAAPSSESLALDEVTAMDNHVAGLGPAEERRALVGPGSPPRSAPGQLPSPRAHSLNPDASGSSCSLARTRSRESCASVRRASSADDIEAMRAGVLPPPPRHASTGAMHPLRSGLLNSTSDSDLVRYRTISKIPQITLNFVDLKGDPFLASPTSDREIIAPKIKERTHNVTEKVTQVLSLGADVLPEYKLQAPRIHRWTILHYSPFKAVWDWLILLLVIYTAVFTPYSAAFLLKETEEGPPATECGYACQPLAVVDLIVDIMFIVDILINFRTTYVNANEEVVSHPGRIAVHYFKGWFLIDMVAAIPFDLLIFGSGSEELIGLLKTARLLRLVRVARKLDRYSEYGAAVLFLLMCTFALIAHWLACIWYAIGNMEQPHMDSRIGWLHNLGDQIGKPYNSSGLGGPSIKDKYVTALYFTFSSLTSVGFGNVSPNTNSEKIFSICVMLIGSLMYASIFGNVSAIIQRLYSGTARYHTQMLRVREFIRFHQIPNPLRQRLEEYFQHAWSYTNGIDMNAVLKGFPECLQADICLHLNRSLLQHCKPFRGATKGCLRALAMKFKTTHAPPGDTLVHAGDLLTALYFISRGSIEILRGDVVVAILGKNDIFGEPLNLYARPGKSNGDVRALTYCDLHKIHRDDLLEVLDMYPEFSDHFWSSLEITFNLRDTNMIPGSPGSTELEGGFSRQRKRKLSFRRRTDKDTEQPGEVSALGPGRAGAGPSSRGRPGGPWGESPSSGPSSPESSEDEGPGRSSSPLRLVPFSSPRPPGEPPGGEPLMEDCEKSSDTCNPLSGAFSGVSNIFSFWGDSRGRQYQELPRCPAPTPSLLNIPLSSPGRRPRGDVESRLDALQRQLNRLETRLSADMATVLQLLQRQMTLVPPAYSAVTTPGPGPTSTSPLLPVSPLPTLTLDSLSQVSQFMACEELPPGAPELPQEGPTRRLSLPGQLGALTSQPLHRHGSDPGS

**Q.** Which “hERG current change (%, negative = inhibition) at 1uM” value does the source give for `Cc1noc(C)c1COC(=O)COc1ccc2c(C)cc(=O)oc2c1` here?
**A.** Its value is -1.18%.

**Q.** How did the “hERG current change (%, negative = inhibition) at 1uM” value turn out when `COc1ccc(CC(=O)Nc2ccc(C(=O)O)cc2NC(=O)Cc2ccc(OC)cc2)cc1` was run?
**A.** The value was 9.07%.

**Q.** `COc1ccc(-c2csc(-c3[nH]cnc3N)n2)cc1` was tested. Which “hERG current change (%, negative = inhibition) at 1uM” value did it give?
**A.** Its value is 4.62%.

**Q.** With `CNC(=O)N(O)C1N(c2ccccc2)C(=S)SC1(C)C` (stereo not shown) as the compound, how does the “hERG current change (%, negative = inhibition) at 1uM” value read?
**A.** The value was 12.2%.

**Q.** `Cc1ccccc1Cn1c2ccccc2c2cnn(CC(=O)NCc3ccccn3)c(=O)c21` was tested. Which “hERG current change (%, negative = inhibition) at 1uM” value did it give?
**A.** The value was 11.6%.

**Q.** With `Cc1nc2nc(SCC(=O)c3ccccc3)[nH]c2cc1Br` as the compound, how does the “hERG current change (%, negative = inhibition) at 1uM” value read?
**A.** Its value is 11.1%.

**Q.** How did the “hERG current change (%, negative = inhibition) at 1uM” value turn out when `O=C(CCNS(=O)(=O)c1cccc2nsnc12)NCc1cccs1` was run?
**A.** The value was 12.2%.

**Q.** For `CCn1cnc2c(oc3ccccc32)c1=O`, which “hERG current change (%, negative = inhibition) at 1uM” value is on record?
**A.** Its value is 9.53%.

**Q.** How did the “hERG current change (%, negative = inhibition) at 1uM” value turn out when `Cc1cccc(NC(=O)CSc2n[nH]c(-c3ccncc3)n2)c1` was run?
**A.** The value was 4.97%.

**Q.** For `COCCNC(=S)N1CCN(Cc2ccc3c(c2)OCO3)CC1`, which “hERG current change (%, negative = inhibition) at 1uM” value is on record?
**A.** The value was 12.7%.

**Q.** With `O=C(CCN1C(=O)c2ccccc2C1=O)Nc1cc(F)ccc1F` as the compound, how does the “hERG current change (%, negative = inhibition) at 1uM” value read?
**A.** Its value is -3.66%.

**Q.** How did the “hERG current change (%, negative = inhibition) at 1uM” value turn out when `COC(=O)c1ccc2c(=O)[nH]c(COC(=O)c3c(-c4ccccc4)noc3C)nc2c1` was run?
**A.** The value was 12.1%.

**Q.** Which “hERG current change (%, negative = inhibition) at 1uM” value does the source give for `COc1ccc(C(=O)NNC(=O)C(=O)NCc2ccccc2)cc1` here?
**A.** Its value is 17.5%.

**Q.** With `Cc1ccnc(NC(=O)c2cc3ccccc3oc2=O)c1` as the compound, how does the “hERG current change (%, negative = inhibition) at 1uM” value read?
**A.** The value was 5.36%.

**Q.** With `CCN1CCN(c2cc(C)c3cc(NC(=S)N4CCCC(C)C4)ccc3n2)CC1` (stereo not shown) as the compound, how does the “hERG current change (%, negative = inhibition) at 1uM” value read?
**A.** The value was 2.87%.

**Q.** Which “hERG current change (%, negative = inhibition) at 1uM” value does the source give for `O=C(COC(=O)c1ccc(Cl)nc1)NNC(=O)c1ccc(Br)cc1` here?
**A.** The value was 3.23%.

**Q.** Which “hERG current change (%, negative = inhibition) at 1uM” value does the source give for `Cc1ccc(C(=O)OCC(=O)NCc2cccs2)cc1S(=O)(=O)N1CCOCC1` here?
**A.** The value was 11.6%.

**Q.** With `Cc1c(C=O)c2ccccc2n1CCOc1ccccc1F` as the compound, how does the “hERG current change (%, negative = inhibition) at 1uM” value read?
**A.** Its value is 13.9%.

**Q.** `O=S(=O)(Cc1ccccc1)Nc1ccccc1Br` was tested. Which “hERG current change (%, negative = inhibition) at 1uM” value did it give?
**A.** Its value is 14.9%.

**Q.** For `CCOC(=O)N1CCC(NC(=O)c2ccc(CS(=O)c3cccc(C)c3)o2)CC1` (stereo not shown), which “hERG current change (%, negative = inhibition) at 1uM” value is on record?
**A.** The value was 8.83%.

**Q.** Which “hERG current change (%, negative = inhibition) at 1uM” value does the source give for `O=C1C=C(/C=C/c2ccccc2)C[C@@H](c2ccc3c(c2)OCO3)C1` here?
**A.** The value was 16.1%.

**Q.** `COc1cc(C(=O)O)ccc1OCc1ccncc1` was tested. Which “hERG current change (%, negative = inhibition) at 1uM” value did it give?
**A.** Its value is 14.1%.

**Q.** Which “hERG current change (%, negative = inhibition) at 1uM” value does the source give for `S=C(CN1CCCC1=S)N1CCOCC1` here?
**A.** The value was 6.25%.

**Q.** `COc1ccc(CCNC(=O)c2cc(-c3ccco3)on2)cc1OC` was tested. Which “hERG current change (%, negative = inhibition) at 1uM” value did it give?
**A.** The value was 3.74%.

**Q.** Which “hERG current change (%, negative = inhibition) at 1uM” value does the source give for `O=C(COc1ccc(F)cc1)Nc1cc(S(=O)(=O)N2CCCCC2)ccc1N1CCCCC1` here?
**A.** Its value is 14.3%.
